This is one part of the list.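 How the source made its calls: active = more than 2 SD below the DMSO mean: under 0.85 at 10 µM or 0.885 at 1 µM; inactive = the rest.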 Single values are uncertain, as repeats are few or missing.

This experiment deals with RPE1. Kind of experiment: nucleolar normality score relative to DMSO (fraction of DMSO control); RPE1 is a non-cancer human cell line; higher = more normal nucleoli (less nucleolar stress). Conditions: 24 h.
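Further: fixed cells immunolabelled for nucleolin and UBF, 40 image fields per well in 384-well plates, per-cell score = nucleolin nucleolar/nucleoplasm intensity ratio divided by the matching UBF ratio.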

Consider `C[C@]12CCC(=O)C=C1CC[C@@H]1[C@@H]2[C@@H](O)C[C@@]2(C)[C@H]1CC[C@]2(O)C(=O)CO` [Hydrocortisone], for which the nucleolar normality score is inactive: 0.976 (1 µM) and inactive: 1.05 (10 µM).
The matching figures for `C=CC(=O)Nc1cccc(C)c1Nc1ncc2cc(-c3c(Cl)c(OC)cc(OC)c3Cl)ccc2n1`: inactive: 1.1 and inactive: 1.16.
The matching figures for `C=C1C(=O)O[C@@H]2/C=C(\C)CC/C=C(\C)CC[C@@H]12` [Costunolide]: active: 0.884 and inactive: 1.03.
On the same counts, the results for `O=C(Nc1ccccc1)c1cc([N+](=O)[O-])ccc1Cl` are inactive: 1.02 and inactive: 0.891.
Take `Oc1ccc2c(c1)OCO2` [Sesamol]: the nucleolar normality score is, setting by setting: (1 µM) inactive: 0.971; (10 µM) inactive: 0.887.
As to `Cn1cnc(-c2cc3nccc(Oc4ccc(NC(=S)NC(=O)Cc5ccccc5)cc4F)c3s2)c1` [Glesatinib?(MGCD265)], the nucleolar normality score by setting is: (1 µM) inactive: 1.02; (10 µM) inactive: 1.06.
As for `c1ccc2c(Cc3c[nH]c4ccccc34)c[nH]c2c1` [3,3'-Diindolylmethane], the nucleolar normality score (1 µM) is inactive: 1.1 and the nucleolar normality score (10 µM) was inactive: 0.919.
On the same counts, the results for `CCC(=O)N1CCN(c2ccc(-n3c(=O)ccc4cnc5ccc(-c6cnc7ccccc7c6)cc5c43)cc2C(F)(F)F)CC1` [Torin 1] are inactive: 0.993 and active: 0.578.
Consider `O=c1cc(N2CCOCC2)oc2c(-c3cccc4c3sc3ccccc34)cccc12`, for which the nucleolar normality score is inactive: 1.01 (1 µM) and active: 0.663 (10 µM).
On the same counts, the results for `COc1ccc([C@@H]2CC(=O)c3c(O)cc(O[C@@H]4O[C@H](CO[C@@H]5O[C@@H](C)[C@H](O)[C@@H](O)[C@H]5O)[C@@H](O)[C@H](O)[C@H]4O)cc3O2)cc1O` [Hesperidin] are inactive: 0.976 and inactive: 0.857.
The matching figures for `Cc1ccc(-c2csc(NC(=O)c3ccccc3)n2)c(C)c1`: active: 0.881 and inactive: 1.03.
As for `CCCCCCCCCCCCCC(=S)NCCCC[C@H](NC(=O)OCc1ccccc1)C(=O)Nc1ccccc1` [Thiomyristoyl], the nucleolar normality score (1 µM) is inactive: 1.03 and the nucleolar normality score (10 µM) was inactive: 1.06.
On the same counts, the results for `Clc1ccc(NN=C(c2ccccc2)c2ccccn2)nc1` are active: 0.552 and active: 0.501.
On the same counts, the results for `O=C(/C=C/c1ccc2ccccc2n1)c1ccncc1` are inactive: 1.02 and inactive: 1.01.
In the case of `CC(C)N(C[C@H]1O[C@@H](n2cnc3c(N)ncnc32)[C@H](O)[C@@H]1O)[C@H]1C[C@@H](CCc2nc3cc(C(C)(C)C)ccc3[nH]2)C1` [Pinometostat (EPZ5676)], the nucleolar normality score by setting is: (1 µM) inactive: 1.06; (10 µM) inactive: 0.905.
Consider `Cc1c(C)c2c(c(C)c1O)CCC(C)(COc1ccc(CC3SC(=O)NC3=O)cc1)O2` (centres undefined) [Troglitazone (CS-045)], for which the nucleolar normality score is inactive: 1 (1 µM) and inactive: 0.97 (10 µM).
The matching figures for `Cc1c(NC(=O)c2cc(C(N)=O)nc3cc(F)ccc23)c(C(F)(F)F)nn1Cc1ccc(C#N)cc1`: inactive: 1 and inactive: 0.932.
On the same counts, the results for `Cc1ccc(NS(=O)(=O)c2ccc3c(c2)C2C=CCC2C(c2ccc(C(=O)O)cc2)N3)cc1C` (centres undefined) are inactive: 0.941 and inactive: 1.02.
On the same counts, the results for `COCCOc1cnc2ccn([C@H](C)c3nnc4c(F)cc(-c5cnn(C)c5)cn34)c(=O)c2c1` are inactive: 0.987 and inactive: 1.03.
For `CCn1c2ccccc2c2cc(Nc3ccnc(NCCCN4CCOCC4)n3)ccc21`, the nucleolar normality score reads like this: (1 µM) inactive: 1.04; (10 µM) inactive: 0.978.
For the compound `NC1(C(=O)N[C@@H](CCO)c2ccc(Cl)cc2)CCN(c2ncnc3[nH]ccc23)CC1`, the nucleolar normality score is, setting by setting: (1 µM) inactive: 0.959; (10 µM) inactive: 1.01.
On the same counts, the results for `Cc1oncc1C(=O)Nc1ccc(C(F)(F)F)cc1` [Leflunomide] are inactive: 1.06 and inactive: 1.04.
On the same counts, the results for `CN(C)/N=N/c1[nH]cnc1C(N)=O` [Dacarbazine] are inactive: 1.05 and inactive: 1.1.
Regarding `Cn1cc(-c2ccc3ncc(Cc4ccc5ncccc5c4)n3n2)cn1`, the nucleolar normality score was inactive: 0.984 (1 µM) and inactive: 0.88 (10 µM).
On the same counts, the results for `Cc1cc(C)c(-c2csc(NC(=O)c3ccccc3)n2)c(C)c1` are inactive: 0.95 and inactive: 1.07.
On the same counts, the results for `Cn1cc(-c2cnn3c(N)c(Br)c([C@@H]4CCCNC4)nc23)cn1` are inactive: 1.01 and active: 0.828.
The matching figures for `C=CC(=O)Nc1cccc(Nc2nc(Nc3ccc(Oc4ccnc(C(=O)NC)c4)cc3)ncc2F)c1`: inactive: 0.988 and inactive: 1.05.
For the compound `CC(C)c1cc(-c2n[nH]c(=O)n2-c2ccc3c(ccn3C)c2)c(O)cc1O` [Ganetespib (STA-9090)], the nucleolar normality score runs as follows: (1 µM) active: 0.337; (10 µM) active: 0.295.
The matching figures for `COc1ccc(-c2ccc3ncc4c(c3c2)n(-c2ccc(N3CCNCC3)c(C(F)(F)F)c2)c(=O)n4C)cn1`: active: 0.499 and active: 0.268.
On the same counts, the results for `N#CSc1cc(SC#N)c(N)nc1N` are inactive: 0.981 and inactive: 0.974.
On the same counts, the results for `Oc1ccc2ccccc2c1SSc1c(O)ccc2ccccc12` are inactive: 1.05 and inactive: 0.914.
Turning to `CCCCc1nc2cc(/C=C/C(=O)NO)ccc2n1CCN(CC)CC` [Pracinostat (SB939)], the nucleolar normality score (1 µM) was inactive: 1.1 and the nucleolar normality score (10 µM) is inactive: 0.913.
Consider `O=C(Nc1cccc2cccnc12)c1ccc(N2C(=O)C3C4C=CC(C4)C3C2=O)cc1` (stereo not drawn) [IWR-1-endo], for which the nucleolar normality score reads like this: (1 µM) inactive: 1.03; (10 µM) inactive: 0.901.
As to `O=C(NO)c1cccc(C(=O)NCCc2ccccc2)c1`, the nucleolar normality score (1 µM) was inactive: 1.01 and the nucleolar normality score (10 µM) is inactive: 1.04.
On the same counts, the results for `Cc1[nH]c2ccccc2c1C1=C(NCCc2ccc(F)cc2)C(=O)N(C)C1=O` are inactive: 0.978 and inactive: 1.03.
On the same counts, the results for `CC#CC(=O)N1CCC[C@H]1c1nc(-c2ccc(C(=O)Nc3ccccn3)cc2)c2c(N)nccn12` [Acalabrutinib (ACP-196)] are inactive: 0.942 and inactive: 0.98.
On the same counts, the results for `CC(C)n1nc(-c2ccc3oc(N)nc3c2)c2c(N)ncnc21` [Sapanisertib (INK 128, MLN0128)] are active: 0.457 and active: 0.429.
For the compound `Nc1nc(NC2CC2)cc(-c2cccc(Cl)c2Cl)n1`, the nucleolar normality score runs as follows: (1 µM) inactive: 0.988; (10 µM) inactive: 1.03.
The matching figures for `C[C@]12CC[C@H](O)CC1=CC[C@@H]1[C@@H]2CC[C@]2(C)C(n3cnc4ccccc43)=CC[C@@H]12` [Galeterone]: inactive: 1.02 and inactive: 0.906.
The matching figures for `CC1=C(/C=C/C(C)=C/C=C/C(C)=C/C(=O)O)C(C)(C)CCC1` [Tretinoin]: inactive: 0.991 and inactive: 0.996.
The matching figures for `O=C(Nc1nc2cccc(-c3ccc(CN4CCS(=O)(=O)CC4)cc3)n2n1)C1CC1` [Filgotinib (GLPG0634)]: inactive: 0.987 and inactive: 0.966.
In the case of `COc1ccc2ccc(=O)oc2c1CC=C(C)C` [Osthole], the nucleolar normality score by setting is: (1 µM) inactive: 1.03; (10 µM) inactive: 0.857.
In the case of `O=C(O)c1ccc(-c2c[nH]c3ncc(-c4ccccc4)cc23)cc1C1CCCC1`, the nucleolar normality score reads like this: (1 µM) inactive: 1.06; (10 µM) inactive: 1.01.
On the same counts, the results for `Cc1cc(Nc2ncc3c(n2)N(C)C(=O)N(c2cc(NC(=O)c4cccc(C(F)(F)F)c4)ccc2C)C3)n(C)n1` [Pluripotin (SC1)] are inactive: 1.06 and active: 0.685.
`c1ccc(-c2[nH]ncc2-c2ccnc3ccccc23)nc1`: the nucleolar normality score reads like this: (1 µM) active: 0.818; (10 µM) inactive: 1.05.
The matching figures for `CCN(CC)CC(O)CNc1ccc(NCC2CO2)c2c1C(=O)c1ccccc1C2=O` (centres undefined): active: 0.386 and active: 0.205.
The matching figures for `C=CC(=O)Nc1cc(Nc2nccc(-c3c[nH]c4ccccc34)n2)c(OC)cc1N(C)CCN(C)C`: inactive: 0.992 and inactive: 1.05.
The matching figures for `C=CC(=O)Nc1cc(Nc2nccc(-c3cn(C)c4ccccc34)n2)c(OC)cc1N(C)CCN(C)C` [Osimertinib (AZD9291)]: inactive: 1.02 and inactive: 1.02.
Regarding `Cc1ccc(NCCCc2ccccc2)c(N)c1`, the nucleolar normality score is inactive: 0.986 (1 µM) and inactive: 1.06 (10 µM).
On the same counts, the results for `C[C@H](NC(=O)/C(C#N)=C/c1cccc(Br)n1)c1ccccc1` are inactive: 1.01 and inactive: 0.87.
`CCC(CC)n1ccc2c(C(=O)NCc3c(C)cc(C)[nH]c3=O)cc(C#N)cc21`: the nucleolar normality score is, setting by setting: (1 µM) inactive: 0.99; (10 µM) inactive: 0.995.
On the same counts, the results for `CCNC(=O)Nc1ccc(-c2nc3c(c(N4CCOC[C@@H]4C)n2)CCN(C2COC2)C3)cc1` are inactive: 0.986 and inactive: 0.975.
Take `C[C@]12CC[C@@H]3c4ccc(O)cc4CC[C@H]3[C@@H]1CC[C@@H]2O` [Estradiol]: the nucleolar normality score was inactive: 0.99 (1 µM) and inactive: 1.07 (10 µM).
On the same counts, the results for `CC(NC(=O)Cc1cc(F)cc(F)c1)C(=O)NC(C(=O)OC(C)(C)C)c1ccccc1` (centres undefined) are inactive: 1.07 and inactive: 1.13.
On the same counts, the results for `Cn1cc(CNCC2CCN(c3ncc(C(=O)NO)cn3)CC2)c2ccccc21` are active: 0.496 and active: 0.47.
The matching figures for `O=c1c2ccccc2nc(C=Cc2cccnc2)n1Cc1ccccc1`: inactive: 0.912 and inactive: 0.969.
With `Nc1cccc2c1C(=O)N(C1CCC(=O)NC1=O)C2=O` (centres undefined) [Pomalidomide], the nucleolar normality score (1 µM) was inactive: 0.989 and the nucleolar normality score (10 µM) is inactive: 1.08.
Take `COc1ccc(S(=O)(=O)Nc2cc(-c3c(O)ccc4ccccc34)c(O)c3ccccc23)cc1`: the nucleolar normality score by setting is: (1 µM) inactive: 0.932; (10 µM) inactive: 0.955.
For the compound `CC1(C)CCC(C)(C)c2cc(NC(=O)c3ccc(C(=O)O)cc3)ccc21` [Tamibarotene], the nucleolar normality score (1 µM) is active: 0.737 and the nucleolar normality score (10 µM) is inactive: 0.85.
As to `C[n+]1cc2c3c(ccc2c2ccc4cc5c(cc4c21)OCO5)OCO3` [Sanguinarine chloride], the nucleolar normality score is, setting by setting: (1 µM) active: 0.367; (10 µM) active: 0.27.
As to `C[C@@H](NC(=O)c1ncnc(N)c1Cl)c1ncc(C(=O)Nc2cc(C(F)(F)F)c(Cl)cn2)s1`, the nucleolar normality score is inactive: 0.989 (1 µM) and inactive: 1.08 (10 µM).
The matching figures for `O=C(/C=C/c1ccccc1)NC(NC(=S)Nc1cccc2cccnc12)C(Cl)(Cl)Cl` (centres undefined) [Salubrinal]: inactive: 1.05 and inactive: 1.06.
